In PubChem BioAssay AID588342 (National Center for Advancing Translational Sciences (NCATS), 2011):
Among all 360,000 compounds or so, about 25,000 (6.9%) were called active. This list was built around the results that the source calls inconclusive (neither active nor inactive); the mix of calls is not that of the screen. Calls follow the shape of the dose curve; as a rule, active = well fitted inhibition curve with a large enough effect; inconclusive = small, poorly fitted or top-dose-only effect; inactive = flat fitted curve, though single readings scatter. Where the call is inconclusive, the potency comes from a doubtful curve fit.

biological target: Luciferin 4-monooxygenase (Photinus pyralis) (UniProt P08659); test: qHTS profiling assay for firefly luciferase inhibitor/activator using purifed enzyme and Km concentrations of substrates (counterscreen for miR-21 project); conditions: purified FLuc, luminescence inhibition; series mostly up to 57.5 µM; activity change, negative = inhibition: at the top concentration; also: nearly all actives have a fitted effect of over 55% in size;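 as to activity change, negative = inhibition: plate controls were vehicle for no effect and reference inhibitor for full effect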
Method in brief: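 Purified P. pyralis luciferase, 10 nM final, with Km-level 10 uM D-luciferin and 10 uM ATP in 50 mM Tris acetate pH 7.5, 10 mM Mg acetate, 0.01% Tween-20, 0.05% BSA; 6-point qHTS titration about 60 µM downward; luminescence read.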
Potency is read from the fitted curve at half-maximal effect; tags tell the direction and shape of the fitted curve.

UniProt P08659, sequence (P08659 whole entry, looked up): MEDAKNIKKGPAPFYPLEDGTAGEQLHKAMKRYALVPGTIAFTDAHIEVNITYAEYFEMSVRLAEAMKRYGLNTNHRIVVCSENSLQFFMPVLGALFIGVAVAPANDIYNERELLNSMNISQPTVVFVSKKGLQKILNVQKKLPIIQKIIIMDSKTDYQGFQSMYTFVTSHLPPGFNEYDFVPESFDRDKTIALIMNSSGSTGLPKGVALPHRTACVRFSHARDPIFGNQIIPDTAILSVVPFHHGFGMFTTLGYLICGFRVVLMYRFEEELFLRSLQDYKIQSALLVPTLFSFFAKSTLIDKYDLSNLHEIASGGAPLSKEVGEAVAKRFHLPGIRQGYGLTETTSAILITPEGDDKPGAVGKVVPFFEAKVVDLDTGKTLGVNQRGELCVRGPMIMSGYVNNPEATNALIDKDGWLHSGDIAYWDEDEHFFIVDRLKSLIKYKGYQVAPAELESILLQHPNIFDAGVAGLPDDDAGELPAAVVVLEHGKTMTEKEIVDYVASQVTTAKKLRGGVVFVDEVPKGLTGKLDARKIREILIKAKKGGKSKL

SMILES | Potency | activity change, negative = inhibition
CCC(C(=O)NC1CCCCC1)n1nc(C)c2sc3ccccc3c2c1=O (configuration not stated) | inconclusive: 19 µM [inhibitor, partial curve] | –
Cc1[nH]nc(SCC(=O)N2CCCCC2)c1[N+](=O)[O-] | inconclusive: 30.1 µM [inhibitor, single point] | –
COc1ccc(/C=N/Nc2cc(=O)n(C)c(=O)n2C)cc1OC | inconclusive: 30.1 µM [inhibitor, single point] | –
COc1ccc(C2=CC(c3ccco3)n3ncnc3N2)cc1 (configuration not stated) | inconclusive: 26.9 µM [inhibitor, partial curve, poor fit] | –
CCN(CC)S(=O)(=O)c1ccc2c(c1)c(=O)c(C(=O)N1CCN(c3cc(C)ccc3C)CC1)cn2C | – | inactive: -3.24%
COC(=O)CCCC(=O)N1CCC(n2nccc2NC(=O)CCOc2ccccc2)CC1 | – | inactive: -0.584%
O=C(Cn1cc(SCc2ccc(F)cc2)c2ccccc21)N1CCCC1 | inconclusive: 37.9 µM [inhibitor, partial curve, poor fit] | –
Cc1nn(-c2ccc(Cl)nn2)c(=O)c2ccccc12 | active: 16.9 µM | –
CCc1nnc(NC(=O)c2nc(SCc3ccc(F)cc3)ncc2Cl)s1 | active: 12 µM | –
Cc1nn(-c2ccccc2)c2nc(-c3ccccc3)cc(C(=O)N3CCOCC3)c12 | – | inactive: 1.74%
O=c1[nH]c(=O)c2cc([N+](=O)[O-])cc([N+](=O)[O-])c2[nH]1 | inconclusive: 23.9 µM [inhibitor, partial curve, poor fit] | –
CC(=O)N(C)c1ccc(NC(=O)Cc2cccs2)cc1 | inconclusive: 26.9 µM [inhibitor, single point] | –
O=C(Nc1nnc(/C=C/c2ccccc2)s1)c1ccco1 | active: 12 µM | –
CCC(=S)/C=C1\Sc2ccc3ccccc3c2N1CCCS(=O)(=O)O | inconclusive: 23.9 µM [inhibitor, partial curve, poor fit] | –
CCCCn1c(C2CC(=O)N(c3ccc(OCC)cc3)C2)nc2ccccc21 (configuration not stated) | – | inactive: -2.3%
O=C(OCC1CCCO1)c1ccc2c(c1)N(Cc1c(F)cccc1Cl)C(=O)c1ccccc1S2(=O)=O (configuration not stated) | – | inactive: -6.86%
Cc1ccc(-c2cnc(SCC(=O)N3CCCc4ccccc43)n2C)cc1 | active: 19 µM | –
CCC1=NN(C(=O)COc2ccccc2)C(O)(c2ccc(Br)cc2)C1 (configuration not stated) | inconclusive: 0.0107 µM [inhibitor, partial curve, poor fit] | –
Cc1ccc2c(c1)c(=O)c1ccccc1n2CCCC(=O)Nc1cc(Cl)ccc1C | – | inactive: 2.72%
CCSc1nnc(NC(=O)CSc2nnc(-c3c[nH]c4ccccc34)n2CC)s1 | inconclusive: 23.9 µM [inhibitor, single point] | –
COc1ccccc1NC(=O)Cn1c(=O)n(CCc2c[nH]c3ccccc23)c(=O)c2cccnc21 | inconclusive: 8.49 µM [inhibitor, partial curve, poor fit] | –
Cc1ccc(C2=N/C(=C\c3cccnc3)C(=O)O2)cc1 | inconclusive: 37.9 µM [inhibitor, single point] | –
O=C(/C=C/c1ccco1)Nc1ccc2c(c1)OCCO2 | active: 1.9 µM | –
CSCCC(NS(=O)(=O)c1ccc2c(c1)oc(=O)n2C)C(=O)NC1CCCc2ccccc21 (configuration not stated) | – | inactive: 5.78%

SMILES | Potency | activity change, negative = inhibition
COC(=O)c1ccc(C2c3c(oc4ccccc4c3=O)C(=O)N2c2nc(C)c(C(=O)OC)s2)cc1 (configuration not stated) | – | inactive: -8.99%
c1csc(-c2nc3ccccc3[nH]2)c1 | active: 30.1 µM | –
CCOc1ccc(C(=O)NCCc2sc(-c3ccc(OC)c(OC)c3)nc2C)cc1 | inconclusive: 26.9 µM [inhibitor, partial curve] | –
O=C(CSc1nc2ccsc2c(=O)n1CC1CCC(C(=O)O)CC1)c1ccc(Cl)cc1 (configuration not stated) | inconclusive: 30.1 µM [inhibitor, partial curve, poor fit] | –
Fc1ccccc1CSc1nc2ncccc2[nH]1 | active: 15.1 µM | –
Cc1cccc(CCNc2ncnc3onc(-c4ccc(Cl)cc4)c23)c1 | – | inactive: -10.9%
Cc1cccc2sc(NNC(=O)c3cc(=O)c4ccccc4o3)nc12 | active: 4.78 µM | –
Cc1ccc(NC(=O)c2ccccc2NC(=O)c2cccs2)cc1 | inconclusive: 21.3 µM [inhibitor, partial curve, poor fit] | –
O=c1oc(CCO)cc2ccc(-c3ccc4[nH]ccc4c3)cc12 | active: 2.69 µM | –
CCOC(=O)N1CCN(c2ccc(C(=O)c3ccccc3)cc2F)CC1 | active: 21.3 µM | –
COc1cc(/C=C2\SC(=Nc3ccccc3)NC2=O)cc(Cl)c1O | inconclusive: 21.3 µM [inhibitor, partial curve, poor fit] | –
CC(C)c1ccc(NC(=O)c2ccc3c(c2)CCN3S(C)(=O)=O)cc1 | inconclusive: 15.1 µM [inhibitor, partial curve] | –
COc1ccc2c(C)cc(N3CCOCC3)nc2c1 | inconclusive: 19 µM [inhibitor, single point] | –
N#Cc1ccc(C(=O)NCc2ccc3c(c2)CCN3C(=O)c2ccc(F)cc2)cc1 | inconclusive: 37.9 µM [inhibitor, partial curve, poor fit] | –
CCOC(=O)c1ccc(N2C(=O)c3n[nH]c(C)c3C2c2ccccc2OC)cc1 (configuration not stated) | inconclusive: 9.53 µM [inhibitor, partial curve, poor fit] | –
CCOc1ccc2nc(NC(=O)CSc3nc(-c4ccccc4)c(C#N)c(=O)[nH]3)sc2c1 | active: 16.9 µM | –
Cc1cc(C)c2nc(N3CCN(C(=O)c4cccs4)CC3)sc2c1 | inconclusive: 30.1 µM [inhibitor, partial curve, poor fit] | –
Cc1ccc(C(=O)N/N=C\c2ccc(Br)o2)o1 | inconclusive: 26.9 µM [inhibitor, partial curve, poor fit] | –
CCOC(=O)c1cc(NC(=O)c2ccc(C)cc2)c(=O)oc1C(F)(F)F | inconclusive: 30.1 µM [inhibitor, single point] | –
CCCn1nnnc1NCc1cccc(OC)c1OCC | – | inactive: 1.53%
COc1ccc(/C=C/C(=O)OCC(=O)N2CC(=O)Nc3ccccc32)cc1 | inconclusive: 23.9 µM [inhibitor, partial curve, poor fit] | –
Cc1ccc(C)c(-n2c3nc(=O)[nH]c(=O)c-3cc3c(C)nn(-c4ccccc4)c32)c1 | – | inactive: 1.52%
Cc1ccc(NC(=S)NC(=O)C2CCCC2)cc1C | active: 10.7 µM | –
O=C(Cn1nc(-c2ccccc2)c2ccccc2c1=O)Nc1ccc2c(c1)nc1n2CCOC1 | inconclusive: 30.1 µM [inhibitor, partial curve, poor fit] | –

SMILES | Potency | activity change, negative = inhibition
Oc1ccccc1/C=N/n1cnn(Cc2ccccc2Cl)c1=S | – | inactive: 3.7%
COC(=O)c1cc(C(=O)N2CCN(c3ccccc3OC)CC2)cc([N+](=O)[O-])c1 | active: 21.3 µM | –
CC(C)NC(=O)c1onc(CSc2ccccc2F)c1C(=O)O | inconclusive: 37.9 µM [inhibitor, partial curve, poor fit] | –
COCc1ccc(CN2CCCC(C(=O)Nc3ccc(-c4cscn4)cc3)C2)o1 (configuration not stated) | – | inactive: -4.27%
Cc1csc(N/N=C/c2ccccc2F)n1 | active: 6.01 µM | –
CCOc1ccc(NC(=O)c2cccc3c2C(=O)N(CC2CCCO2)C3)cc1 (configuration not stated) | active: 8.49 µM | –
COc1ccc(C(=O)NC2CCN(CC(=O)Nc3cccc(OC)c3)CC2)cc1 | inconclusive: 26.9 µM [inhibitor, single point] | –
Cc1cccnc1NC(=S)NC(=O)/C=C/c1ccco1 | inconclusive: 21.3 µM [inhibitor, partial curve] | –
CCOC(=O)/C(C#N)=C/Nc1ccsc1C(C)=O | inconclusive: 37.9 µM [inhibitor, partial curve, poor fit] | –
Cc1nc2ccccn2c1C(=O)NN | – | inactive: 1.12%
O=C(O)COc1ccccc1/C=C1\SC(=S)N(/N=C/c2ccccc2O)C1=O | inconclusive: 37.9 µM [inhibitor, single point] | –
O=C(/C=C/c1ccc(Cl)c([N+](=O)[O-])c1)Nc1cccc(NC(=O)c2ccco2)c1 | inconclusive: 19 µM [inhibitor, partial curve, poor fit] | –
CCOC(=O)c1cccc(NC(=O)c2cc3c(=O)n(C)c4ccccc4c3n2C)c1 | – | inactive: 1.06%
O=C(Nc1ccon1)c1ccc(OC2CCCC2)cc1 | active: 3.01 µM | –
CCCCc1nc2cc(Cl)ccc2o1 | inconclusive: 37.9 µM [inhibitor, partial curve, poor fit] | –
COc1ccc(-c2nnc(-c3cc4c(ccc5ccccc54)oc3=O)o2)cc1 | – | inactive: 3.86%
Cc1ccc(NC2=C(CC(=O)O)C(c3ccc(F)cc3)N(c3ccc(C)cc3)C2=O)cc1 (configuration not stated) | inconclusive: 37.9 µM [inhibitor, partial curve, poor fit] | –
CCOC(=O)c1ccc(NCCc2ccc(OC)c(OC)c2)c(N)c1 | – | inactive: -19.3%
O=C(c1cc2cc(Cl)ccc2o1)N1CCCC1 | inconclusive: 23.9 µM [inhibitor, partial curve] | –
CC1CCN(S(=O)(=O)c2nnc(NC(=O)c3ccc(C(C)C)cc3)s2)CC1 | inconclusive: 9.53 µM [inhibitor, partial curve] | –
O=C(c1cc(-c2cccc(Cl)c2)on1)N1CCN(c2ccccc2)CC1 | inconclusive: 30.1 µM [inhibitor, partial curve, poor fit] | –
O=C(O)c1cc(-c2cccs2)nn1-c1cccc(Cl)c1 | inconclusive: 21.3 µM [inhibitor, partial curve, poor fit] | –
Cc1ccc(N/N=C2\CCS(=O)(=O)c3sccc32)cc1 | active: 16.9 µM | –
CCCCCCCCCCCC(=O)c1c(O)cccc1O | inconclusive: 16.9 µM [inhibitor, partial curve, poor fit] | –
